Inconclusive means that the source gave no clear call. Such entries were picked first, then a sample of the others. Potencies of inconclusive entries are doubtful fits and often do not repeat. The source made the active and inactive calls. The call rests on the fitted dose curve; in most records, active means well fitted inhibition curve with a large enough effect; inconclusive means small, poorly fitted or top-dose-only effect; inactive means no such curve, though single readings can be large or run the other way.
The compounds below were run on Zika virus NS2B-NS3 protease (linked) (assay: 384 well plate NINDS AMC confirmatory qHTS for Zika virus inhibitors (AID 1347163; further: nearly all actives have a fitted effect of over 50% in size)). Details: Recombinant NS2B-NS3 protease, Ac-VKTGKR-AMC fluorescence; series mostly up to 100 µM.
Text: Description: Assay Submitters (PI): Avindra Nath, Ph.D., National Institute of Neurological Disorders and Stroke (NINDS), Bethesda, MD Radhakrishnan Padmanabhan, Ph.D., Georgetown University (GU), Washington D.C. Zika Virus causes congenital defects, including microcephaly and is associated with Guillain-Barre syndrome, eningoencephalitis and myelitis in infected adult. […] Using a target-based approach, we hope to establish a screening paradigm to uncover novel, cell-active NS2B-NS3 protease (Zika Virus) specific inhibitors from NCATS' collection of small molecules using qHTS. […] Four assay panel was created to identify potential Zika Virus inhibitors. Namely, (1) GU unlinked NS2B-NS3 AMC tagged protease qHTS, (2) GU unlinked NS2B-NS3 Rhodamine tagged protease qHTS, (3) NINDS linked NS2B-NS3 AMC tagged protease qHTS, (4) NINDS linked NS2B-NS3 Rhodamine tagged protease qHTS. Active compounds are validated using a secondary assay in 384 well plate format. Early Translation Branch (ETB) National Center for Advancing Translational Sciences (NCATS), Rockville, MD National Institute of Health (NIH), Bethesda, Maryland
384-well NINDS AMC Assay The protease was diluted to 7.5 nM, 40.9 nM, or 82 nM in assay buffer and dispensed into a 96-well PCR plate (Applied Biosystems); 20 or 22 microL was transferred to a black 384-well assay plate (final protease concentration of 5 nM, 30 nM, or 60 nM, respectively). Compounds (3 microL, 1 microM - 10 mM, DMSO) were diluted and transferred to the assay plate (final concentrations ranged from 100 nM to 1 mM). Compounds were incubated with protease for ~15 minutes. The substrate, Ac-VKTGKR-AMC (Genscript), was dissolved in DMSO to a concentration of 6 mM and further diluted into assay buffer to a working concentration of 180 microM, then dispensed into a 384-well preparation plate (Eppendorf). A multichannel repeat pipettor was used to add 3 or 5 microL of substrate to the assay plate to give a final concentration of 30 microM. The plate was incubated in the dark at room temperature. After 25 minutes, the fluorescence intensity (excitation: 355 nm, emission: 460 nm) was measured and normalized to no-enzyme and no-inhibitor controls. Aprotinin39 (VWR) was used as an intraplate control.
Potency means the concentration at half of the fitted maximal effect; tags describe the fitted curve by direction and shape.

Compound	Potency
O=C(O)c1ccc(CCCc2ccc(OCCc3ccc(F)cc3)cc2)o1	active: 5010 nM
C=CC1(C)C=C2CC[C@H]3[C@@](C)(C(=O)O)CCC[C@]3(C)C2CC1 (some centres not stated)	active: 70800 nM
CC(=O)N1c2ccc(-c3ccc(C(=O)O)cc3)cc2C(Nc2ccc(Cl)cc2)CC1C (configuration not stated)	inconclusive: 1120 nM [inhibitor, full curve]
C=C1C2CCC3CC2(CC(O)C2(O)C1CC(OC1OC(CO)C(O)C(O)C1O)C2(C)C)CC3(C)O (configuration not stated)	active: 35500 nM
O=C(O)c1cc(O)c2cccc(O)c2c1O[C@@H]1O[C@H](CO)[C@@H](O)[C@H](O)[C@H]1O	inactive
CC1(C)CC2=C3C=CC4C5(C)CCC(O)C(C)(C)C5CCC4(C)C3(C)CCC2(C)C(O)C1 (configuration not stated)	inconclusive: 1120 nM [inhibitor, full curve]
CC(C)=CCOc1ccc(/C=C/C(=O)c2ccc(OCC=C(C)C)cc2OCC(=O)O)cc1	active: 39800 nM
Cc1ccc2[nH]c(=O)c(C3=NN(C(=O)CCC(=O)O)C(c4ccc(Br)cc4)C3)c(-c3ccccc3)c2c1 (configuration not stated)	inactive
CC1(C)CCC(C)(C)c2cc(C3(c4ccc(C(=O)O)cc4)OCCO3)ccc21	inactive
CCc1nnc(NS(=O)(=O)c2ccc(NC(=S)NC(=O)/C=C/c3ccc(F)cc3)cc2)s1	inconclusive: 1120 nM [inhibitor, full curve]
Cc1cc(N2CCOCC2)cc2[nH]c(-c3c(NC[C@@H](O)c4cccc(Cl)c4)cc[nH]c3=O)nc12	inactive
CC1C(O)C(O)C2C(C(=O)OCCc3ccc(O)cc3)=COC(O[C@@H]3O[C@H](CO)[C@@H](O)[C@H](O)[C@H]3O)C12 (some centres not stated)	inconclusive: 70800 nM [inhibitor, partial curve, poor fit]
Cc1cc(CN2CCN(c3c(Br)cnc4nc(-c5ccc(N6CCN(C)CC6)cc5)[nH]c34)CC2)no1	inactive
O=S(=O)(Nc1cc(Cl)c(Oc2cnc3ccccc3c2)c(Cl)c1)c1ccc(Cl)cc1Cl	inconclusive: 1410 nM [inhibitor, full curve]
CC(C)C[C@H](C(=O)O)c1cc(-c2ccc(C(F)(F)F)cc2)cc(-c2ccc(C(F)(F)F)cc2)c1	inconclusive: 447 nM [inhibitor, full curve, poor fit]
O=C(O)C1(Cc2cccc(Nc3nccs3)n2)CCC(Oc2cccc(Cl)c2F)CC1 (configuration not stated)	active: 3160 nM
CCOc1ccc(-c2ccc(Cn3c(CC(C)(C)C(=O)O)c(SC(C)(C)C)c4cc(OCc5ccc(C)cn5)ccc43)cc2)cn1	inconclusive: 224 nM [inhibitor, full curve, poor fit]

Source: PubChem BioAssay (NCATS)
